Drawing on the RNAGym collection of RNA variant scans (doi:10.7554/elife.90254), this text covers self-cleavage for 20 variants.

The source gives no read counts; variants with many changes may rest on few reads.

To fix the notation:
B1: LINE1-full (parent)
chain: UACGUAGGUGGUUUUCCCCUGAUAGUGCUAAGGGGGCCUGGAAGUUUGGACUGGGCAGAGCUCAACACAGCGUGGCAAAGUGGCUGUGGCUAGACUGCCUCUCUGGAUUCCUCGUCACUCAGCAGGGCAUCUCUGAGAGAAAUGCC

This data set covers variants of B1. The experiment in a line: self-cleavage, relative activity (ratio to wild type); higher = more cleavage; in vitro, sequencing; the parent is a self-cleaving ribozyme.
Turning to UACGUAGGUGGUUUUCCCCCGAUAGUGCUAAGGGGGCCUGGAAGUUUGGACUGGGCAGAGCACAACACAGCGUGGCAAAGUGGCUGUGGCUAGACUGCCUCUCUGGAUUCCUCGUCACUCAGCAGGGCAUCUCUGAGGGAAAUGCC [U20C U62A A138G], the self-cleavage is 0.05. For UACGUAGGUGGUUUUCCCCCGAUAGUGCUAAGGGGGCCUGGAAGUCUGGACUGGGCAGAGCUCAACACAGCGUGGCAGAGUGGCUGUGGCUAGACUGCCUCUCUGGAUUCCUCGUCACUCAGCAGGGCGUCUCUGAGAGAAAUGCC [U20C U46C A78G A129G], the self-cleavage was determined as 1.91. The result for UACGUAGGUGGUUUUCCCCCGAUAGUGCUAAGGGGGCCUGGAAGUUGGGACUGGCCAGAGCUCAACACAGCGUGGCAAAGUGGCUGUGGCUAGACUGCCUCUCUGGAUUCCUCGUCACUCAGCAGGGCAUCUCUGAGAGAAAUGCC [U20C U47G G55C] reads 0.16; that for UACGUAGGUGGUUUUCCCCCGAUAGUGCUAAGGGGGCCUGGAAGUUAGGACUGGGCAGAGCUCAACACAGCGAGGCAAAGUGGCUGUGGCUAGACUGCCUCUCUGGAUUCCUCGUCACUCAGCAGGGCAUCUCUGAGAGAAAUGCC [U20C U47A U73A], 1.4. Regarding UACGUAGGUGGUUUUCCCCCGAUAGUGCUAAGGGGGCCUGGAAGUUAGGACUGGGCAGAGCUCAACACAGCGUGGCAAAGUGGCUGCGGCUAGACUGCCUCUCUGGAUUCCUCGUCACUCAGCAGGACAUCUCUGAGAGAAAUGCC [U20C U47A U87C G127A], the self-cleavage amounted to 0.17.

Turning to UACGUAGGUGGUUUUCCCCCGAUAGUGCUAAGGGGGCCUGGAAGCUUGGACUGGGCAGAGCUCAACACAGCGUGGCAAAGUGGCUGUAGCUAGGCUGCCUCUCUGGAUUCCUCGUCACUCAGCAGGGCAUCUCUGAGAGAAAUGCC [U20C U45C G88A A94G], the self-cleavage stood at 0.09. As for UACGUAGGUGGUUUUCCCCCGAUAGUGCUAAGGGGGCCUGGAAGUUUGGACUGGGCAGAGCCCAACACAGCGUGGCAAAGUGGCUGUGGCUAGACUGCCUCUCUGGAUUCCUCGUCACUCAGCAGGGCAUCACUGAGAGGAAUGCC [U20C U62C U132A A140G], the figure is 0.03; as for UACGUAGGUGGUUUUCCCCCGAUAGUGCUAAGGGGGCCUGGAAGUUUGGACCGGGCAGAGCUCAAUGCAGCGUGGCAAAGUGGCUGUGGCUAGACUGCCUCUCCGGAUUCCUCGUCACUCAGCAGGGCAUCUCUGAGAGAAAUGCC [U20C U52C C66U A67G U104C], 0.24; as for UACGUAGGUGGUUUUCCCCCGAUAGUGCUAAGGGGGCCUGGAAGUUCGGGCUGGGCAGUGCUCAACACAGCGUGGCAAAGUGGCUGUGGCUAGACUGCCUCUCUGGAUUCCUCGUCACUCAGCGGGACAUCUCUGAGAGAAAUGCC [U20C U47C A50G A59U A124G G127A], 1.88. Take UACGUAGGUGGUUUUCCCCCGAUAGUGCUAAGGGGGCCUGGAAGCUUGGACUGGGCAGAGCUCAACACAGCGUGGCAAAGUGGCUGUGGCUAGACUGCCUCUCUGGAUUCCUCGUCACUCAGCAGGGCAUCUCUGAGAGAGAUGCC [U20C U45C A141G]: the self-cleavage stood at 1.79.

In the case of UACGUAGGUGGUUUUCCCCCGAUAGUGCUAAGGGGGCCUGGAAGUUCGGACUGGGCAGAGCUCAACAUAGCGUGGCAAAGUGGCGGUGGCUAGACUGCCUCUCUGGAUUCCUCGUCACUCAGCAGGGCAUCUCUGAGAGAAAUGCC [U20C U47C C68U U85G], the self-cleavage came out at 0.12. For UACGUAGGUGGUUUUCCCCCGAUAGUGCUAAGGGGGCCUGGAAGUCUGGACUGGGCAGAGCUCAACACAGCGUGGCAAAGUGGCUGUGGCUAGACUGCCUCUCUGGAUUCCUCGUCACUCAGCAGGGCAUCCCUGAGGGAAAUGCC [U20C U46C U132C A138G], the self-cleavage came to 1.6. As for UACGUAGGUGGUUUUCCCCCGAUAGUGCUAAGGGGGCCUGGAAGUGUGGACUGGGCAGAGCUCAACACAGCGUGGCAAAGAGGCUGUGGCUAGACUGCCUCUCUGGAUUCCUCGUCACUCAGCAGGGCAUCUCCGAGAGAAAUGCC [U20C U46G U81A U134C], the figure is 2.03. As for UACGUAGGUGGUUUUCCCCCGAUAGUGCUAAGGGGGCCUGGAAGUUUGGACUGGGCAGAGCCCAACACAGCGUGGCAAAGUGGCUGUGGCUAGACUGCCUCUCUGGAUUCCUCGUCACUCAGCAGGGCAUCUCUGAGAGAAAAGCC [U20C U62C U143A], the figure is 0. UACGUAGGUGGUUUUCCCCCGAUAGUGCUAAGGGGGCCUGGAAGUUUGGACUGGGCAGAGCCCAACACAGCGUGGCAAAGUGGCUGUGGCUAGACUGCCUCUCUGGAUUCCUCGUCACUCAGCAGGGCAUCUCUGAGAGAAACGCC [U20C U62C U143C]: the self-cleavage was 0.12. The result for UACGUAGGUGGUUUUCCCCCGAUAGUGCUAAGGGGGCCUGGAAGUUUGGACAGGGCAGAGCUCAACACGGCGUGGCAAAGUGGCUGUGGCUAGACUGCCUCUCUGGAUUCCUCGUCACUCAGCAGGGCAUCUCUGAGAGAAAUGCC [U20C U52A A69G] reads 1.15; that for UACGUAGGUGGUUUUCCCCCGAUAGUGCUAAGGGGGCCUGGAAGUUCGGACUGGGCAGAGCUCAACACAGCGUGGCAAAGUGGCUGUGGCUAGACUGCCUCUCUGGAUUCCUCGUCACUCAGCAGGGCAUCUCUGAGAGUAAUGCC [U20C U47C A140U], 0; that for UACGUAGGUGGUUUUCCCCCGAUAGUGCUAAGGGGGCCUGGAAGUUCGGACAGGGCAGAGCUCAACACAGCGUGGCAAAGUGGCUGUGGCUAGACUGCCUCUCUGGAUUCCUCGUCACUCAGCAGGGCAUCUCUGAGAGAAAUGCC [U20C U47C U52A], 1.49.

As to UACGUAGGUGGUUUUCCCCCGAUAGUGCUAAGGGGGCCUGGAAGCUCGGACUGGGCAGAGCCCAACACAGCGUGGCAAAGUGGCUGUGGCUAGACUGCCUCUCUGGAUUCCUCGUCACUCAGCAGGGCAUCUCUGAGAGAAAUGCC [U20C U45C U47C U62C], the self-cleavage was 0.

With UACGUAGGUGGUUUUCCCCCGAUAGUGCUAAGGGGGCCUGGAAGUUUGGACUGGGCAGAGCCCAACACAGCGUGGCAAAGUGGCUGUGGCUAGACUGCCCCUCUGGAUUCCUCGCCACUCAGCAGGGCAUCUCUGAGAGAAAUGCC [U20C U62C U100C U115C], the self-cleavage turned out to be 0.
